# Laboratory results reported in the supplement of paper PMC8728848.
# This is one part of the list.
# B1: Banana lectin (Musa acuminata) (protein)
# chain: MNGAIKVGAHGGNGGSAFDMGPAYRIISVKIFSGDVVDGVDVTFTYYGKTETRHYGGSGGTPHEIVLQEGEYLVGMAGEVANYHGAVVLGKLGFSTNKKAYGPFGNTGGTPFSLPIAAGKISGFFGRGGKFLDAIGVYLEPLEHHHHHH
# Legend:
# Assay in all cases: glycan array binding signal (z-score within array); higher = stronger binding
# Conditions in all cases: glycan notation: IUPAC condensed, linker removed; mutation: W10H
# [1] = molecular target: Neu5Ac(a2-3)Gal(b1-3)GlcNAc(b1-6)GalNAc
# Method in brief: (§1)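 Glycan array data came from 3228 arrays in the Consortium for Functional Glycomics database, and only arrays with an available protein sequence were kept. Glycan names were put into IUPAC-condensed notation, and columns mapping to the same glycan were averaged. The binding signal is a within-array Z-score, averaged across arrays of one protein sequence run at different concentrations or buffers and across linkers. A negative Z-score can be read as non-binding.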
# [2] = molecular target: Neu5Ac(a2-3)Gal(b1-3)GlcNAc6S
# Method in brief: as §1
# [3] = molecular target: Neu5Ac(a2-3)Gal(b1-3)[Fuc(a1-4)]GlcNAc
# Method in brief: as §1
# [4] = molecular target: Neu5Ac(a2-3)Gal(b1-3)[Fuc(a1-4)]GlcNAc(b1-3)Gal(b1-3)[Fuc(a1-4)]GlcNAc
# Method in brief: as §1
# [5] = molecular target: Neu5Ac(a2-3)Gal(b1-3)[Fuc(a1-4)]GlcNAc(b1-3)Gal(b1-4)[Fuc(a1-3)]GlcNAc
# Method in brief: as §1
# [6] = molecular target: Neu5Ac(a2-3)Gal(b1-3)[GlcNAc(b1-6)]GalNAc
# Method in brief: as §1
# [7] = molecular target: Neu5Ac(a2-3)Gal(b1-3)[Neu5Ac(a2-6)]GalNAc
# Method in brief: as §1
# [8] = molecular target: Neu5Ac(a2-3)Gal(b1-3)[Neu5Ac(a2-6)]GlcNAc(b1-3)[Fuc(a1-3)[Gal(b1-4)]GlcNAc(b1-6)]Gal(b1-4)Glc
# Method in brief: as §1
# [9] = molecular target: Neu5Ac(a2-3)Gal(b1-3)]Neu5Ac(a2-3)Gal(b1-4)]GlcNAc
# Method in brief: as §1
# Neu5Ac(a2-3)Gal(b1-4)Glc = molecular target: Neu5Ac(a2-3)Gal(b1-4)Glc
# Method in brief: as §1
# [10] = molecular target: Neu5Ac(a2-3)Gal(b1-4)GlcNAc
# Method in brief: as §1
# [11] = molecular target: Neu5Ac(a2-3)Gal(b1-4)GlcNAc(b1-2)Man
# Method in brief: as §1
# [12] = molecular target: Neu5Ac(a2-3)Gal(b1-4)GlcNAc(b1-2)Man(a1-3)[GlcNAc(b1-4)][Neu5Ac(a2-3)Gal(b1-4)GlcNAc(b1-2)Man(a1-6)]Man(b1-4)GlcNAc(b1-4)GlcNAc
# Method in brief: as §1
# [13] = molecular target: Neu5Ac(a2-3)Gal(b1-4)GlcNAc(b1-2)Man(a1-3)[Neu5Ac(a2-3)Gal(b1-4)GlcNAc(b1-2)Man(a1-6)]Man(b1-4)GlcNAc(b1-4)GlcNAc
# Method in brief: as §1
# [14] = molecular target: Neu5Ac(a2-3)Gal(b1-4)GlcNAc(b1-2)Man(a1-3)[Neu5Ac(a2-3)Gal(b1-4)GlcNAc(b1-2)Man(a1-6)]Man(b1-4)GlcNAc(b1-4)[Fuc(a1-6)]GlcNAc
# Method in brief: as §1
# [15] = molecular target: Neu5Ac(a2-3)Gal(b1-4)GlcNAc(b1-2)Man(a1-3)[Neu5Ac(a2-6)Gal(b1-4)GlcNAc(b1-2)Man(a1-6)]Man(b1-4)GlcNAc(b1-4)GlcNAc
# Method in brief: as §1
# [16] = molecular target: Neu5Ac(a2-3)Gal(b1-4)GlcNAc(b1-2)[Neu5Ac(a2-3)Gal(b1-4)GlcNAc(b1-4)]Man(a1-3)[GlcNAc(b1-4)][Neu5Ac(a2-3)Gal(b1-4)GlcNAc(b1-2)[Neu5Ac(a2-3)Gal(b1-4)GlcNAc(b1-6)]Man(a1-6)]Man(b1-4)GlcNAc(b1-4)GlcNAc
# Method in brief: as §1
# [17] = molecular target: Neu5Ac(a2-3)Gal(b1-4)GlcNAc(b1-2)[Neu5Ac(a2-3)Gal(b1-4)GlcNAc(b1-4)]Man(a1-3)[GlcNAc(b1-4)][Neu5Ac(a2-3)Gal(b1-4)GlcNAc(b1-4)Man(a1-6)]Man(b1-4)GlcNAc(b1-4)GlcNAc
# Method in brief: as §1
# [18] = molecular target: Neu5Ac(a2-3)Gal(b1-4)GlcNAc(b1-2)[Neu5Ac(a2-3)Gal(b1-4)GlcNAc(b1-6)]Man(a1-6)[Neu5Ac(a2-3)Gal(b1-4)GlcNAc(b1-2)Man(a1-3)][GlcNAc(b1-4)]Man(b1-4)GlcNAc(b1-4)GlcNAc
# Method in brief: as §1
# [19] = molecular target: Neu5Ac(a2-3)Gal(b1-4)GlcNAc(b1-3)Gal
# Method in brief: as §1
# [20] = molecular target: Neu5Ac(a2-3)Gal(b1-4)GlcNAc(b1-3)Gal(b1-3)GlcNAc
# Method in brief: as §1
# [21] = molecular target: Neu5Ac(a2-3)Gal(b1-4)GlcNAc(b1-3)Gal(b1-4)GlcNAc
# Method in brief: as §1
# [22] = molecular target: Neu5Ac(a2-3)Gal(b1-4)GlcNAc(b1-3)Gal(b1-4)GlcNAc(b1-2)Man(a1-3)[Neu5Ac(a2-3)Gal(b1-4)GlcNAc(b1-3)Gal(b1-4)GlcNAc(b1-2)Man(a1-6)]Man(b1-4)GlcNAc(b1-4)GlcNAc
# Method in brief: as §1
# [23] = molecular target: Neu5Ac(a2-3)Gal(b1-4)GlcNAc(b1-3)Gal(b1-4)GlcNAc(b1-3)Gal(b1-4)GlcNAc
# Method in brief: as §1
# [24] = molecular target: Neu5Ac(a2-3)Gal(b1-4)GlcNAc(b1-3)Gal(b1-4)GlcNAc(b1-3)Gal(b1-4)GlcNAc(b1-2)Man(a1-3)[Neu5Ac(a2-3)Gal(b1-4)GlcNAc(b1-3)Gal(b1-4)GlcNAc(b1-3)Gal(b1-4)GlcNAc(b1-2)Man(a1-6)]GalNAc
# Method in brief: as §1
# [25] = molecular target: Neu5Ac(a2-3)Gal(b1-4)GlcNAc(b1-3)Gal(b1-4)GlcNAc(b1-3)GalNAc
# Method in brief: as §1
# [26] = molecular target: Neu5Ac(a2-3)Gal(b1-4)GlcNAc(b1-3)Gal(b1-4)GlcNAc(b1-3)[Neu5Ac(a2-3)Gal(b1-4)GlcNAc(b1-3)Gal(b1-4)GlcNAc(b1-6)]GalNAc
# Method in brief: as §1
# [27] = molecular target: Neu5Ac(a2-3)Gal(b1-4)GlcNAc(b1-3)Gal(b1-4)GlcNAc(b1-6)[Gal(b1-3)]GalNAc
# Method in brief: as §1
# [28] = molecular target: Neu5Ac(a2-3)Gal(b1-4)GlcNAc(b1-3)Gal(b1-4)[Fuc(a1-3)]GlcNAc
# Method in brief: as §1
# [29] = molecular target: Neu5Ac(a2-3)Gal(b1-4)GlcNAc(b1-3)GalNAc
# Method in brief: as §1
binder,measurement,setting,value
B1,glycan array binding signal (z-score),[1],-0.186
same,glycan array binding signal (z-score),[2],-0.145
same,glycan array binding signal (z-score),[3],-0.171
same,glycan array binding signal (z-score),[4],-0.185
same,glycan array binding signal (z-score),[5],-0.102
same,glycan array binding signal (z-score),[6],-0.103
same,glycan array binding signal (z-score),[7],-0.182
same,glycan array binding signal (z-score),[8],-0.16
same,glycan array binding signal (z-score),[9],-0.181
same,glycan array binding signal (z-score),Neu5Ac(a2-3)Gal(b1-4)Glc,-0.159
same,glycan array binding signal (z-score),[10],-0.147
same,glycan array binding signal (z-score),[11],-0.121
same,glycan array binding signal (z-score),[12],-0.162
same,glycan array binding signal (z-score),[13],-0.188
same,glycan array binding signal (z-score),[14],-0.115
same,glycan array binding signal (z-score),[15],-0.153
same,glycan array binding signal (z-score),[16],-0.171
same,glycan array binding signal (z-score),[17],-0.161
same,glycan array binding signal (z-score),[18],-0.114
same,glycan array binding signal (z-score),[19],-0.183
same,glycan array binding signal (z-score),[20],-0.197
same,glycan array binding signal (z-score),[21],-0.154
same,glycan array binding signal (z-score),[22],-0.168
same,glycan array binding signal (z-score),[23],-0.143
same,glycan array binding signal (z-score),[24],-0.056
same,glycan array binding signal (z-score),[25],-0.169
same,glycan array binding signal (z-score),[26],-0.166
same,glycan array binding signal (z-score),[27],-0.196
same,glycan array binding signal (z-score),[28],-0.192
same,glycan array binding signal (z-score),[29],-0.158
